# Data as given in PubChem BioAssay AID686979 (National Center for Advancing Translational Sciences (NCATS), 2013).
# Several values for one entry are separate records, joined by “and”; a condition that tells them apart may be missing. Equal values may be shown once. Out of some 420,000 compounds screened, about 50,000 (12%) were called active. The shares of active, inactive and inconclusive entries below differ from those in the screen. Calls follow the shape of the dose curve; as a rule, active = well fitted inhibition curve with a large enough effect; inconclusive = small, poorly fitted or top-dose-only effect; inactive = flat fitted curve, though single readings scatter. Potencies beside an inconclusive call are fits to weak or partial responses and may not hold up.
# Test: qHTS for Inhibitors of human tyrosyl-DNA phosphodiesterase 1 (TDP1): qHTS in cells in presence of CPT; also: nearly all actives have a fitted effect of over 55% in size
# Conditions: chicken DT40 Tdp1-/-;hTDP1 cells + 20 nM CPT, ATP luminescence, 48 h; activity change, negative = growth inhibition: at 46.2 µM (top of the series) unless noted
# How it was run: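 Chicken DT40 Tdp1-/- cells complemented with human TDP1, 400 cells/well, exposed to compounds plus 20 nM camptothecin for at least 48 h at 37 C; viability read as ATP content by CellTiter-Glo luminescence.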
# % is scaled to controls: 0 for no effect and ±100 for the full control effect; potency is read from the fitted curve at half-maximal effect; tags tell the direction and shape of the fitted curve.
Structure (SMILES),Potency,"activity change, negative = growth inhibition"
CC(=O)N1N=C(c2ccccc2)CC1c1cccs1 (stereo unspecified),"inconclusive: 18.4 µM [inhibitor, single point]",
COc1ccc(C(=O)Nc2nonc2-c2ccc(OC)c(OC)c2)cc1Cl,"inconclusive: 20.6 µM [inhibitor, single point]",
COc1cc(C(=O)NC2CCN(C)CC2)ccc1Nc1ncc2c(n1)N(C1CCCC1)CCC(=O)N2C(C)C,"inconclusive: 29.1 µM [inhibitor, single point]",
Cc1ccc(-c2nc(Cn3c(SCc4ccc(F)cc4)nc4cccnc43)c(C)o2)cc1,active: 0.731 µM,
CC(C)(C)c1nnc(N/N=C/c2ccccc2O)n(N)c1=O,active: 0.651 µM,
O=C(Nc1ccc(S(=O)(=O)Nc2nccs2)cc1)c1ccc(=O)[nH]c1,,inactive: 11.1%
CN(CCOc1ccccc1)C(=O)c1cc([N+](=O)[O-])ccc1N1CCOCC1,"inconclusive: 10.3 µM [inhibitor, partial curve]",
O=C(CNC(=O)c1ccc(Br)o1)Nc1ncccc1O,,inactive: -12.4%
CCN(C(=O)c1cccn(Cc2cccc(Cl)c2)c1=O)c1ccccc1,"inconclusive: 20.6 µM [inhibitor, single point]",
Cc1ccc(OC(=O)c2ccccc2)cc1C,,inactive: -1.06%
COc1cccc(-c2csc(N3CCN(CC(=O)Nc4ccc5c(c4)OCO5)CC3)n2)c1,"inconclusive: 20.6 µM [inhibitor, single point]",
CCOc1ccccc1C(=O)Nc1nnc(SCC(=O)Nc2cc(C)on2)s1,,inactive: -28.3%
O=C(Nc1nnc(-c2cccs2)o1)c1cccc(C(F)(F)F)c1,active: 5.17 µM,
COc1ccc(C(=O)NCCNc2nc3cc(C)c(C)cc3cc2C)cc1,,inactive: 1.31%
COc1ccc(-c2cc(C(F)(F)F)nc(N3CCN(C)CC3)n2)cc1OC,"inconclusive: 23.1 µM [inhibitor, single point]",
COc1ccc(CNc2ncnc3c2c(-c2ccccc2)cn3-c2cccc(C)c2)cc1,"inconclusive: 29.1 µM [inhibitor, single point]",
COc1ccc(-c2ccc3c(c2)S(=O)(=O)c2cccc(C(=O)N4CCN(C5CCCCC5)CC4)c2C3=O)cc1OC,active: 18.4 µM,
CCOc1cccc2sc(N(CCN(C)C)C(=O)c3ccc4ccccc4c3)nc12,"inconclusive: 29.1 µM [inhibitor, single point]",
O=C(Nc1ccc(Cl)cc1)Nc1nc(-c2ccccc2)cs1,"inconclusive: 16.4 µM [inhibitor, single point]",
Cc1c(Cc2c(C)n(C)n(-c3ccccc3)c2=O)c(=O)n(-c2ccccc2)n1C,,inactive: -4.84%
COc1ccc(N2CCN(CC(O)COc3ccc(F)cc3)CC2)cc1 (stereo unspecified),"inconclusive: 29.1 µM [inhibitor, single point]",
CN(C)c1ccnc2sc(C(=O)c3ccc(Br)cc3)c(N)c12,,inactive: -0.079%
CC(=O)c1ccc(S(=O)(=O)N2CCn3cccc3C2c2ccc(F)c(F)c2)cc1 (stereo unspecified),"inconclusive: 11.6 µM [inhibitor, partial curve]",

Structure (SMILES),Potency,"activity change, negative = growth inhibition"
COc1ccc(CNc2ncnc3ccc(-c4cccc(C#N)c4)cc23)c(OC)c1,"inconclusive: 29.1 µM [inhibitor, single point]",
Cc1ccc(-n2nnnc2SCC(=O)NCC2(N3CCOCC3)CCCCC2)c(C)c1,"inconclusive: 18.4 µM [inhibitor, single point]",
Cc1cc2cc(NC(=O)c3ccco3)ccc2[nH]1,,inactive: -1.7%
Cc1nn(-c2nnc(C)c(=O)[nH]2)c(C)c1SCC(=O)Nc1ccc(F)cc1,,inactive: -0.837%
Cc1ccsc1-c1cc2nc(NCCCN(C)C)n(C)c(=O)c2s1,active: 23.1 µM,
O=S(=O)(NCc1ccccc1)c1ccc2ccccc2c1,,inconclusive: -31.2% [inhibitor]
NC(=O)c1nsc(C(=O)N(CCCN2CCOCC2)C(C(=O)NC2CCCCC2)c2ccc(Cl)cc2)c1N (stereo unspecified),,inactive: 2.27%
Cc1cc(=O)c2c(o1)CC(C)(C)CC2=O,"inconclusive: 5.17 µM [inhibitor, single point]",
CC(C)Oc1ccc(CNC(=O)c2ccc3c(c2)N(C)C(=O)C2CCCCN32)cc1 (stereo unspecified),"inconclusive: 29.1 µM [inhibitor, single point]",
COc1ccc(/C=C/c2c([N+](=O)[O-])c(=O)n(C)c(=O)n2C)cc1O,,inactive: -28.7%
CCN1CCN(c2cc(C)c3cc(NC(=O)/C=C/c4ccc(OCCC(C)C)cc4)ccc3n2)CC1,active: 4.61 µM,
CC(NC(=O)/C=C/c1ccco1)c1nc2ccccc2n1Cc1ccccc1F (stereo unspecified),"inconclusive: 29.1 µM [inhibitor, single point]",
COc1cccc(NC(=O)C2CCN(S(=O)(=O)c3c(C)noc3/C=C/c3cccs3)CC2)c1,"inconclusive: 29.1 µM [inhibitor, single point]",
O=C1O[C@@H](c2ccccc2)C[C@@H](O)C(=O)CCCCc2ccccc21,"inconclusive: 29.1 µM [inhibitor, single point]",
COc1ccccc1CNC(=O)C(=O)c1cn(CC(=O)N2CCOCC2)c2ccccc12,,inactive: -8.77%
COc1ccc(NC(=O)[C@@H]2CC=C[C@@H]3CCN(Cc4ccccc4)C(=O)[C@@H]32)cc1,"inactive and inconclusive: 22.4 µM [inhibitor, single point]",
CCCCC(=O)N1C/C=C\[C@H](c2ccc(OC)cc2)N(Cc2ccc(F)cc2)C(=O)[C@@H]1C,"inconclusive: 29.1 µM [inhibitor, single point]",
Cc1nn(CC(=O)NCCc2ccc(Cl)cc2)c(C)c1[N+](=O)[O-],,inactive: 4.43%
COC(=O)c1[nH]c2ccc(C)cc2c1NC(=O)CN1CCN(C(=O)c2ccccc2)CC1,"inconclusive: 25.9 µM [inhibitor, single point]",
O=C(COc1ccccc1Cl)Nc1nc(-c2ccc(F)cc2)ns1,,inactive: 3.52%
CCOC(CCn1c(SCc2ccc([N+](=O)[O-])cc2)nc2ccccc2c1=O)OCC,active: 14.6 µM,
Cc1ccccc1NC(=O)Nc1nc(C(N)C2CCCCC2)cs1 (stereo unspecified),active: 23.1 µM,
CN(C)C(=S)NC1CCS(=O)(=O)C1 (stereo unspecified),,inactive: 2.98%
